{"source": "paper PMC4336329", "about": "(PLoS ONE, 2015)", "note": "In all, about 310,000 compounds went through this assay and about 14,000 (4.5%) showed an effect of 50% or more. Effects have a minus sign here. The list shows a part of the results.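 Further: peak tail current of the secondary pulse compared with the same well before compound.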", "data": [{"target": "human ether-à-go-go-related gene (hERG) potassium channel (human, UniProt Q12809)", "sequence (Q12809 whole entry, looked up)": "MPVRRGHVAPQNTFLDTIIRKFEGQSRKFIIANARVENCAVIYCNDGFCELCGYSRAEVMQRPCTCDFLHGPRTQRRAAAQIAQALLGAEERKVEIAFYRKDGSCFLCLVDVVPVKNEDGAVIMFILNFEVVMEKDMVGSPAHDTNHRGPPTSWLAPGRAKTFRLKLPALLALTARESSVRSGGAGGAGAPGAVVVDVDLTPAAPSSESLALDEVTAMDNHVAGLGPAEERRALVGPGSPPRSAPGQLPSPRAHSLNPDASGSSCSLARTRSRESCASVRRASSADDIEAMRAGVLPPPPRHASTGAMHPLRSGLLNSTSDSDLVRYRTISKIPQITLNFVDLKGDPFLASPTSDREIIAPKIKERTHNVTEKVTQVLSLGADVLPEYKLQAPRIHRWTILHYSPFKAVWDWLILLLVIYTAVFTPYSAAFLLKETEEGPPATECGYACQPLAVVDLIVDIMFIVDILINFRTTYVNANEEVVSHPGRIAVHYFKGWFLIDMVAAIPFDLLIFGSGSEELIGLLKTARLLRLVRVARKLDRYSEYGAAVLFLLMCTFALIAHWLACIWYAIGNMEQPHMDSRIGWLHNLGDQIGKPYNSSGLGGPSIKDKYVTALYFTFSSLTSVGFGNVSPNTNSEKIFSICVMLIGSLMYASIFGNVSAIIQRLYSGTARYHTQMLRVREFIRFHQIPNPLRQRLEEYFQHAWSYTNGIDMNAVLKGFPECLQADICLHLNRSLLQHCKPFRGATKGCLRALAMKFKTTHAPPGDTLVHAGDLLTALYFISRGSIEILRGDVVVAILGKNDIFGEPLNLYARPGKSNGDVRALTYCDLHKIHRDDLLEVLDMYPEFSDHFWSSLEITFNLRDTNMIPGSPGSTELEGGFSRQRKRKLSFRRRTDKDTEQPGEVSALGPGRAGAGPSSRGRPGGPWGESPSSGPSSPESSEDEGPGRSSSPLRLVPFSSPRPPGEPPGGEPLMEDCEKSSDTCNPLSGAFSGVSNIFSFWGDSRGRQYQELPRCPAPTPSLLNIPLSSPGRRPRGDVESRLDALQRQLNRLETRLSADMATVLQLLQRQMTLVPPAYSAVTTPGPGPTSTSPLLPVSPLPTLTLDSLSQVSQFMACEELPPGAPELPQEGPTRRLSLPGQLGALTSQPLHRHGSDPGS", "experiment": "primary screen, population patch clamp on CHO cells stably expressing hERG", "protocol": "Briefly, Chinese hamster ovary (CHO) cells stably expressing the hERG channel were dislodged from tissue culture flasks and dispensed into PPC plates. […] During the recording, background leak currents were estimated by a 100 ms step to -80 mV from an initial holding potential of -70 mV and subtracted from the subsequent current measurement. The campaign was conducted in two phases using slight differences in recording protocol. In the first phase, the initial voltage pulse used a 100 ms step to -30 mV from a holding potential of -70 mV, a 2 s conditioning step to +25 mV, and a 2 s test step to -30 mV. During the second phase of the screen, the potential during the conditioning step was raised to +45 mV. In both phases of the campaign, a secondary voltage pulse was applied using the same parameters as the second phase initial pulse. The initial and secondary pulses were applied in the absence of compound, and upon application of 1 μM and 10 μM test concentrations. […]", "units": {"hERG current change (%, negative = inhibition) at 10uM": "%"}, "values": [{"compound": "Fc1c(F)c(F)c(N=Cc2ccc3ncccc3c2)c(F)c1F", "hERG current change (%, negative = inhibition) at 10uM": 9.06}, {"compound": "COCCN(CCOC)S(=O)(=O)c1ccc(C(=O)Nc2c(C)n(C)n(-c3ccccc3)c2=O)cc1", "hERG current change (%, negative = inhibition) at 10uM": -13.7}, {"compound": "CS(=O)(=O)n1nc(-c2ccc(Cl)cc2)nc1SCc1ccccc1", "hERG current change (%, negative = inhibition) at 10uM": 4.58}, {"compound": "Cc1c(C)n(CCN(C)C)c2ccc(C(=O)OCCN(C)C)cc12.Cl", "hERG current change (%, negative = inhibition) at 10uM": 5.13}, {"compound": "O=C(NNc1nc2c(F)cccc2s1)C1COc2ccccc2O1", "note": "(stereo not shown)", "hERG current change (%, negative = inhibition) at 10uM": 11.7}, {"compound": "Cc1cccc(N(CC(=O)NCC2CCCO2)C(=O)CNS(=O)(=O)c2ccc(Cl)cc2)c1", "note": "(stereo not shown)", "hERG current change (%, negative = inhibition) at 10uM": -6.95}, {"compound": "COc1cc(C(=O)Nc2nnc(C3CC3)s2)ccc1OCc1c(C)noc1C", "hERG current change (%, negative = inhibition) at 10uM": 23.5}, {"compound": "O=C(Nn1cnnc1)c1cc(-c2cccc(Br)c2)nc2ccccc12", "hERG current change (%, negative = inhibition) at 10uM": 3.75}, {"compound": "c1ccc(CSc2nnc(Cc3ccccn3)o2)cc1", "hERG current change (%, negative = inhibition) at 10uM": 9.85}, {"compound": "COc1ccc(S(=O)(=O)NN=C2CCCC2)cc1", "hERG current change (%, negative = inhibition) at 10uM": -5.26}, {"compound": "Cc1csc(Sc2ccc([N+](=O)[O-])cc2C(=O)OCC(=O)NC(=O)NC(C)(C)C)n1", "hERG current change (%, negative = inhibition) at 10uM": 8.31}, {"compound": "CC(=O)N1CCOCCOCCN(C(C)=O)CCOCC1", "hERG current change (%, negative = inhibition) at 10uM": 28.8}, {"compound": "Cc1cccc(C)c1NC(=O)COC(=O)c1ccc2c(c1)OCO2", "hERG current change (%, negative = inhibition) at 10uM": -4.84}, {"compound": "COc1ccc(Cl)cc1N(CC(=O)NC(C(C)C)C(C)C)S(C)(=O)=O", "hERG current change (%, negative = inhibition) at 10uM": -4.99}, {"compound": "Cc1ccccc1CC1S/C(=N/N=C/c2ccco2)NC1=O", "note": "(stereo not shown)", "hERG current change (%, negative = inhibition) at 10uM": 20.1}, {"compound": "c1ccc(-n2ncc3c(NCc4ccc5c(c4)OCO5)ncnc32)cc1", "hERG current change (%, negative = inhibition) at 10uM": -4.86}, {"compound": "C=CCN1c2ccccc2[C@]23C[C@@H](C(=O)OC)N(C(=O)NCCC)C2=NC(C(=O)OC)=C(C(=O)OC)[C@H]13", "hERG current change (%, negative = inhibition) at 10uM": 16.2}, {"compound": "CCCOc1ccc(C(=O)NC(=S)NNC(=O)c2c(-c3ccccc3)noc2C)cc1", "hERG current change (%, negative = inhibition) at 10uM": 8.74}, {"compound": "Cc1csc2nc(O)c(C(=O)NC3CCCCC3C)c(=O)n12", "note": "(stereo not shown)", "hERG current change (%, negative = inhibition) at 10uM": -28.2}, {"compound": "COc1ccc(/C=N/Nc2ncnc3sc(C)c(C)c23)cc1", "hERG current change (%, negative = inhibition) at 10uM": -8.19}, {"compound": "O=C(Nc1ccccc1[N+](=O)[O-])C1(c2ccccc2)CCOCC1", "hERG current change (%, negative = inhibition) at 10uM": -16.1}, {"compound": "O=C(Nc1cccc(S(=O)(=O)Nc2ccc(Cl)cc2)c1)c1cc2c(s1)CCCC2", "hERG current change (%, negative = inhibition) at 10uM": 4.73}, {"compound": "COc1ccc2c(c1)nc(CN1CCN(CCO)CC1)n2C", "hERG current change (%, negative = inhibition) at 10uM": 23}, {"compound": "CCO.N#CC1=C(N)OC2=C(CC/C2=C\\c2ccccc2Cl)C1c1ccccc1Cl", "note": "(stereo not shown)", "hERG current change (%, negative = inhibition) at 10uM": 10.4}, {"compound": "O=C(NCc1nnc(SCC(=O)N2CCCc3ccccc32)o1)c1c(F)cccc1Cl", "hERG current change (%, negative = inhibition) at 10uM": 7.87}, {"compound": "O=C(c1ccc(N2CCCC2)c([N+](=O)[O-])c1)N1CCN(S(=O)(=O)c2ccc(Cl)cc2)CC1", "hERG current change (%, negative = inhibition) at 10uM": -36.2}, {"compound": "Cn1cccc1-c1cc(C(=O)N/N=C/c2ccc(Cl)cc2)[nH]n1", "hERG current change (%, negative = inhibition) at 10uM": -22.3}, {"compound": "COc1ccc(-n2c(O)c(/C=C3\\C=Nc4ccc(Br)cc43)c(=O)[nH]c2=O)cc1", "hERG current change (%, negative = inhibition) at 10uM": 15.5}, {"compound": "COc1ccc(-c2c(C)[nH]n3c(=O)c(Cc4ccccc4)c(C)nc23)cc1", "hERG current change (%, negative = inhibition) at 10uM": -22.4}, {"compound": "O=C(NCCN1CCCOC1=O)C(=O)NCCN1CCCOC1=O", "hERG current change (%, negative = inhibition) at 10uM": 4.98}, {"compound": "COc1cc(CC(=O)NCc2ccco2)cc(OC)c1OC", "hERG current change (%, negative = inhibition) at 10uM": 11.8}, {"compound": "CC1CCCCN1C/C=C/c1ccccc1[N+](=O)[O-]", "note": "(stereo not shown)", "hERG current change (%, negative = inhibition) at 10uM": -39}, {"compound": "Cc1ccc(N(Cc2cc3cc(C)ccc3[nH]c2=O)S(=O)(=O)c2ccccc2)cc1", "hERG current change (%, negative = inhibition) at 10uM": -1.76}, {"compound": "O=C(CSc1ccccc1)N[C@@H](Cc1ccccc1)C(=O)O", "hERG current change (%, negative = inhibition) at 10uM": 13.7}, {"compound": "CC(=O)N1CCN(C(=O)COC(=O)CNC(=O)c2ccc(C)cc2)CC1", "hERG current change (%, negative = inhibition) at 10uM": 1.27}, {"compound": "COC(=O)/C(=C\\Nc1ccc(Cl)cc1Cl)NC(=O)c1ccccc1", "hERG current change (%, negative = inhibition) at 10uM": -4.83}, {"compound": "CN(C)S(=O)(=O)c1cccc(C(=O)Nc2ccccc2)c1", "hERG current change (%, negative = inhibition) at 10uM": 16.1}, {"compound": "COc1ccc(C=O)cc1C1=CC(=O)C[C@H](c2ccc(Cl)cc2)C1", "hERG current change (%, negative = inhibition) at 10uM": -17.8}, {"compound": "CSCCC(NC(=O)c1ccco1)C(=O)N1CCN(c2ccccc2O)CC1", "note": "(stereo not shown)", "hERG current change (%, negative = inhibition) at 10uM": -25.6}, {"compound": "O=C(COc1ccc(S(=O)(=O)N2CCOCC2)cc1)N1CCCCCC1", "hERG current change (%, negative = inhibition) at 10uM": 31.2}, {"compound": "Cc1ccc(C(=O)Nc2ccc(N3CCN(C)CC3)cc2)cc1C.Cl", "hERG current change (%, negative = inhibition) at 10uM": -46.6}, {"compound": "CCOC(=O)C1CCCN(CCC(=O)Nc2ccc(Br)c(C)c2)C1.Cl", "note": "(stereo not shown)", "hERG current change (%, negative = inhibition) at 10uM": -36.1}, {"compound": "COc1ccc(C(C(=O)NCc2ccccc2)N(C(=O)c2snc(C(N)=O)c2N)c2ccccc2OC)cc1", "note": "(stereo not shown)", "hERG current change (%, negative = inhibition) at 10uM": 9.69}, {"compound": "CCOC(=O)N1CCN(Cc2nc(N)nc(Nc3ccc(OC)cc3)n2)CC1", "hERG current change (%, negative = inhibition) at 10uM": -62.4}, {"compound": "CC(=O)Nc1ccc(NC(=O)Cn2nc(C(=O)Nc3ccc(C)cc3)ccc2=O)cc1", "hERG current change (%, negative = inhibition) at 10uM": 27.3}, {"compound": "O=S(=O)(Nc1nccs1)c1cc(Cl)ccc1Cl", "hERG current change (%, negative = inhibition) at 10uM": 1.38}, {"compound": "CCOC(=O)C1(Cc2ccccc2C(F)(F)F)CCN(C(C)CSC)CC1", "note": "(stereo not shown)", "hERG current change (%, negative = inhibition) at 10uM": -48.2}, {"compound": "Cc1ccc(O)c(NC(=O)C2CC(c3cccc(Br)c3)=NO2)c1", "note": "(stereo not shown)", "hERG current change (%, negative = inhibition) at 10uM": -15}, {"compound": "CCOC(=O)c1cc(CC)sc1NC(=O)COC(=O)C1CCC1", "hERG current change (%, negative = inhibition) at 10uM": 8.46}, {"compound": "Cc1ccc(S(=O)(=O)N2CCCN(S(=O)(=O)C3CCS(=O)(=O)C3)CC2)cc1", "note": "(stereo not shown)", "hERG current change (%, negative = inhibition) at 10uM": -31}, {"compound": "CCOC(=O)C(=O)N1CCC(Cc2ccccc2)CC1", "hERG current change (%, negative = inhibition) at 10uM": -1.57}, {"compound": "Cc1ccc(SCn2nnc3ccccc3c2=O)c(C)c1", "hERG current change (%, negative = inhibition) at 10uM": -33.8}, {"compound": "Nc1nnc(SCC(=O)NCc2ccc3c(c2)OCO3)s1", "hERG current change (%, negative = inhibition) at 10uM": 10.1}, {"compound": "CN(C)CCN(C)Cc1ccccc1Sc1cccc2ccccc12.Cl", "hERG current change (%, negative = inhibition) at 10uM": -65.3}, {"compound": "CC(C)(CNS(=O)(=O)c1ccc(Cl)cc1)N1CCCCC1", "hERG current change (%, negative = inhibition) at 10uM": -5.62}]}]}
